The campaign covered roughly 190,000 compounds. About 400 (0.21%) were called active. Inconclusive results, whose numbers are uncertain, are shown with a selection of clear calls.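 Rule for the calls: active = percent activity GTP binding at least 20 points away from the 100% baseline, either down as inhibitor or up as activator; inconclusive = compound flagged as likely green fluorescent from well-wide comparison; inactive = the rest.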
target: Cell division control protein 42 homolog (Homo sapiens) (UniProt P60953); assay: wildtype Cdc42 fluorescent GTP binding changes, either direction – biochemical, multiplex bead flow cytometry, Bodipy-GTP, primary screen (AID 761); settings: GST-Cdc42 beads, at 10 µM, actives lie on both sides;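 note: median bead fluorescence of bound Bodipy-FL-GTP at 100 nM; 0% = excess unlabeled GTP control and 100% = no compound control; below 100% means less GTP binding so inhibitor and above means activator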
Chain of UniProt P60953 (P60953 whole entry, looked up): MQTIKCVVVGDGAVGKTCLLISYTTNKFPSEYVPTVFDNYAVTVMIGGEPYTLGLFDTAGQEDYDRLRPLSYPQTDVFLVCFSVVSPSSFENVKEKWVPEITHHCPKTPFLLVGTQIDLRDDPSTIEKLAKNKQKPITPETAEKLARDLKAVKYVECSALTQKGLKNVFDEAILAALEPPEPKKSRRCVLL

Compound | percent activity (GTP binding)
O=C(COc1ncnc2cc([N+](=O)[O-])ccc12)NC(=O)NC1CCCCC1 | inactive: 80%
COc1ccccc1NC(=O)C1=C(C)NC2=C(C(=O)CCC2)C1c1ccc2c(c1)OCO2 (centres undefined) | inconclusive: 104%
Cc1cc(NC(=O)/C(C#N)=C/c2ccc(-c3ccc(SC(F)F)cc3)o2)n(-c2ccccc2)n1 | inconclusive: 123%
c1ccc(-c2nnc3sc(-c4ccncc4)nn23)cc1 | inconclusive: 91%
OCCC1CN(Cc2ccc3c(c2)CCO3)CCN1Cc1ccc(F)cc1 (centres undefined) | inconclusive: 94%
CCOc1c(Br)ccc2c1sc1nc[nH]c(=O)c12 | inactive: 97%
Cc1nc2nc(SCC(=O)O)nn2c(C)c1Cc1ccccc1Cl | inactive: 82%
O=[N+]([O-])c1cccc(S(=O)(=O)c2ccc(NCCO)c([N+](=O)[O-])c2)c1 | inactive: 97%
Cc1ccc(NC(=O)C2CCCN(C(=O)c3ccc(Cl)cc3)C2)cc1S(=O)(=O)N1CCOCC1 (centres undefined) | inactive: 95%
Cc1[nH]nc(SCC(=O)NCc2ccc(F)cc2)c1[N+](=O)[O-] | inactive: 104%
Clc1ccc(Cc2nc(-c3ccncc3)no2)cc1 | inconclusive: 95%
Cc1nc2cc(NC(=O)NC3CC3)ccc2n1C | inconclusive: 97%
Cn1ncc(Cl)c1C(=O)NC(=S)Nc1sc2c(c1C#N)CCCCC2 | inactive: 88%
CCOc1ccccc1Nc1nnc(SCC(=O)NC(Cc2c[nH]c3ccccc23)C(=O)O)s1 (centres undefined) | inconclusive: 90%
CC(CC(C)C(=O)Nc1ccccc1C(C)(C)C)C(=O)O (centres undefined) | inactive: 99%
COC(=O)Nc1ccc(S(=O)(=O)N2c3ccccc3CCC2C)cc1 (centres undefined) | inactive: 100%
COc1cc(NC(=O)COC(=O)c2nc3nc(C)cc(C)n3n2)cc(OC)c1 | inactive: 102%
C=CCNc1cc(N2CCCC2)ccc1[N+](=O)[O-] | inactive: 95%
O=C(Cn1c2[n+](c3ccccc31)CC(O)CS2)c1ccccc1 (centres undefined) | inactive: 94%
CC(C)C(=O)N(Cc1cc(=O)[nH]c2ccccc12)c1ccccc1 | inactive: 102%
CCSc1nnc(-c2ccccc2N=Cc2c(C)[nH]n(-c3ccccc3)c2=O)c(=O)[nH]1 | inconclusive: 92%
CCOC(=O)CSc1nc2c(sc(=S)n2CCc2ccccc2)c(=O)n1Cc1ccco1 | inactive: 99%
COc1ccc(C2C(C(=O)NCc3ccco3)CCC(=O)N2c2ccc(OC)cc2)cc1 (centres undefined) | inconclusive: 102%
CCOC(=O)C1(Cc2ccccc2)CCCN(CCO)C1 (centres undefined) | inconclusive: 117%

Compound | percent activity (GTP binding)
COc1ccccc1NC(=S)N(CCCN1CCOCC1)Cc1cccs1 | inactive: 100%
O=C(O)c1ccccc1COc1ccccc1Cl | inactive: 109%
Cc1cccc(N2CCN(C(=O)Cc3ccc(Br)cc3)CC2)c1C | inconclusive: 93%
CCCNC(=O)c1ccc(C2SCC(=O)N2CCc2ccccc2)cc1 (centres undefined) | inactive: 98%
O=C(CSc1nnc(-c2cccs2)o1)c1cccs1 | inactive: 97%
COc1ccc2nc(-n3c(O)c(C4=c5ccccc5=NC4=O)[nH]c3=S)sc2c1 | inactive: 93%
Cc1nc2ccc(-c3nc4ccc(N)cc4[nH]3)cc2[nH]1 | inconclusive: 126%
COc1ccc(/C=N/NC(=O)CCSc2nc3ccccc3s2)cc1OC | inconclusive: 93%
Cc1cccc(CN2C(=O)CCSc3ccc(Cl)cc32)c1 | inconclusive: 103%
COc1ccc(-n2cc(-c3ccccc3)c3c(N4CCOCC4)ncnc32)cc1 | inactive: 97%
Cc1ccc(C)c(C(C)NC(=O)CC#N)c1 (centres undefined) | inconclusive: 96%
O=[N+]([O-])c1cc(/C=N/N/C(=N/c2ccccn2)c2ccccn2)ccc1O | inconclusive: 90%
COCCn1cnnc1SCC(=O)Nc1sccc1C(N)=O | inconclusive: 94%
COc1ccc(-c2nc(-c3cccs3)c(-c3cccs3)[nH]2)cc1O | inconclusive: 82%
COc1ccccc1/C=C1/SC(=O)N(CCC(=O)Nc2ccc(S(=O)(=O)Nc3nccs3)cc2)C1=O | inconclusive: 95%
COc1cccc2cc(-c3ccnc(=S)[nH]3)oc12 | inconclusive: 66%
CC(=O)Nc1nc(C2CC2)cc(-c2ccccc2)c1C#N | inactive: 98%
CCOC(=O)CSc1nc2c(sc(=S)n2-c2ccccc2)c(=O)[nH]1 | inconclusive: 88%
COc1ccc(NC(=O)CSc2[nH]c(=O)cc(C)c2C#N)cc1OC | inconclusive: 94%
O=C(Nc1nc(-c2ccncc2)cs1)c1ccc(S(=O)(=O)N2CCOCC2)cc1 | inconclusive: 92%
CC(=O)NNc1nc(-c2ccccc2)c2cc(Br)ccc2n1 | inactive: 101%
COc1ccc(/C=C/C(=O)Nc2ccccc2C(F)(F)F)cc1OC | inconclusive: 94%
CCOc1cc(NC(=S)Nc2cccc(OC)c2)c(OCC)cc1NC(=O)C1CC1 | inactive: 97%
Cc1cc(C)cc(NC(=O)NCc2nnc(SCc3ccccc3)n2C)c1 | inconclusive: 90%

Compound | percent activity (GTP binding)
CN(C)S(=O)(=O)c1ccc(Cl)c(C(=O)Nc2nc3ccccc3[nH]2)c1 | inconclusive: 91%
CN(C)C(=O)CSc1nc(SCC(=O)N(C)C)n(-c2ccccc2)n1 | inconclusive: 104%
COC(=O)c1ccccc1NC(=O)Cc1nc(-c2ccccc2)sc1-c1ccc(C)cc1 | inactive: 104%
CC(=O)c1ccc(-n2nncc2-c2ccc([N+](=O)[O-])cc2)cc1 | inconclusive: 92%
COc1ccc(S(=O)(=O)n2oc(=O)cc2-c2ccccc2)cc1 | active: 79%
Cc1nn(Cc2ccc(F)cc2)c2sc(C(=O)Nc3ccc(N4CCOCC4)cc3N3CCOCC3)cc12 | inconclusive: 97%
CC(C)N(C)NC(=S)Nc1ccccc1 | inconclusive: 204%
CCOc1ccc(C2C(C(=O)O)CCC(=O)N2C2CCCCC2)cc1 (centres undefined) | active: 72%
CC(NC(=O)Cn1cc(C(F)(F)F)ccc1=O)c1ccc(F)cc1 (centres undefined) | inactive: 96%
CCS(=O)(=O)N1CCN(CC(=O)NC2CCCCC2)CC1 | inactive: 100%
c1ccc2oc(SCc3nc4ccccc4s3)nc2c1 | inconclusive: 83%
CCOc1c(Cl)cc(Cl)cc1CNCCNCCO | inconclusive: 107%
CCOc1ccc(N2C(=O)CC(N(CCc3ccc(OC)cc3)C(=O)/C=C/C(=O)O)C2=O)cc1 (centres undefined) | inconclusive: 91%
Fc1ccc(C(Nc2ccccn2)c2c[nH]c3ccccc23)cc1 (centres undefined) | inconclusive: 89%
COc1ccc(-c2cc(-c3ccccc3)n3ncnc3n2)cc1 | inconclusive: 110%
COc1ccc(NC(=S)NC(=O)CC(C)C)c(OC)c1 | inactive: 101%
O=C(NCc1ccc2c(c1)OCO2)c1ccc(S(=O)(=O)N2CCOCC2)cc1 | inactive: 100%
Cn1nnnc1Sc1ncnc2scc(-c3ccc(F)cc3)c12 | inconclusive: 134%
CC(C)Oc1ccc(C(CC(=O)O)n2cnnn2)cc1 (centres undefined) | inconclusive: 93%
Cc1ccccc1C(=O)NNC(=O)c1cccc([N+](=O)[O-])c1 | inconclusive: 101%
Cn1nnnc1SCc1ccc(C(=O)Nc2nccs2)cc1 | active: 75%
CC(C)(C)NCCOc1ccc(Br)cc1 | inconclusive: 107%
CCOc1ccc(-n2c(=S)sc3c(=O)[nH]c(SCC(=O)N4CCC(C)CC4)nc32)cc1 | inconclusive: 97%
CC1Oc2ccccc2OC1C(=O)Nc1ccccn1 (centres undefined) | inconclusive: 103%

Compound | percent activity (GTP binding)
O=C(NCc1ccco1)/C(=C\c1cccs1)NC(=O)c1ccco1 | inconclusive: 94%
COC(=O)c1ccccc1NC(=O)C1COc2ccccc2O1 (centres undefined) | inconclusive: 97%
CCN(CC)C(=O)/C(=C\c1ccc2c(c1)OCO2)NC(=O)c1ccc(Br)cc1 | inconclusive: 99%
Cc1cc(C)c2cc(CNC3CCCC3)c(Cl)nc2c1 | inconclusive: 113%
O=C(NCCc1ccccc1)c1c(F)c(F)c(F)c(F)c1F | inactive: 106%
O=C(NCCCN1CCOCC1)c1cccc(S(=O)(=O)Nc2cc(Cl)ccc2Cl)c1 | inactive: 94%
CSc1ccccc1NC(=O)c1cc(-c2cccnc2)nc2ccc(Br)cc12 | inactive: 100%
CC(c1ccccc1)N1CC(C(=O)N2CCN(c3ccc(F)cc3)CC2)CC1=O (centres undefined) | inconclusive: 92%
CCOC(=O)/C=C/C(=O)Nc1ccc(Oc2ccccc2)cc1 | inconclusive: 97%
COc1ccc(CC(=O)Nc2ccc(S(=O)(=O)NC(C)C)cc2)cc1 | active: 30%
O=C(O)c1ccc(Br)c(S(=O)(=O)N2CCCC2)c1 | inconclusive: 110%
Cc1n[nH]c(C)c1CCOc1ccc(C(C)C)cc1 | inconclusive: 88%
O=S(=O)(Cc1ccccc1)N1CCc2ccccc21 | inactive: 94%
C=CCN1C(=O)/C(=C/c2ccc(N(C)C)cc2)S/C1=N\c1nnc(CC)s1 | inconclusive: 129%
CCOC(=O)Cn1c(=O)c2c(nc(N3CCCCC3)n2C)n(C)c1=O | active: 123% [activator]
CCOC(=O)c1c(-c2ccccc2)csc1NC(=O)/C(C#N)=C/c1ccc(O)c(OC)c1 | inconclusive: 118%
COc1ccc(C(=O)N2CCOC23CCN(c2ncccn2)CC3)cc1 | inactive: 97%
COc1cccc(-n2ccnc2SCC(=O)Nc2ccccc2F)c1 | inconclusive: 92%
CCN(C(=O)CSc1nnc(C)n1-c1ccccc1)C1CCS(=O)(=O)C1 (centres undefined) | inconclusive: 92%
CCNC(=S)N1CCNC(=O)C1CC(=O)OC (centres undefined) | inactive: 101%
CCCCC(=O)Nc1ccc(C(=O)NNC(=O)CCc2ccccc2)cc1 | inconclusive: 110%
O=c1c2ccccc2nc2ccc(NCc3ccco3)nn12 | inactive: 87%
